In the supplement of paper PMC6089552:
In all, about 3,200 compounds went through this assay and about 300 (9.4%) showed activity. This is a selection; strong and weak results do not stand in their true shares.

System: A673/TR/shEF
Test: cell viability (LOESS-normalised, relative to median of negative controls) (log2 ratio); higher = more viable cells (less compound effect), active = hit call of the paper (over 3 MAD below the median)
Settings: treatment time: 72 h
In short: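 Doxycycline, present or absent from 24 h before compounds, was used to induce EWS-FLI1 shRNA knockdown in A673/TR/shEF Ewing sarcoma cells at 1,500 per well in 384-well plates. Cells then received library compounds at two or more concentrations, or DMSO controls, for three days. Viability was measured by CellTiter-Glo luminescence on an Envision reader, and per-plate LOESS correction, division by the negative-control median and log2 transformation followed.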

[1] = 0.25 µM, library screen: screen2, EWS-FLI1 expression: high (no doxycycline)
[2] = 0.25 µM, library screen: screen2, EWS-FLI1 expression: low (doxycycline-induced shRNA knockdown)
[3] = 2.5 µM, library screen: screen2, EWS-FLI1 expression: high (no doxycycline)
[4] = 2.5 µM, library screen: screen2, EWS-FLI1 expression: low (doxycycline-induced shRNA knockdown)
[5] = 0.25 µM, library screen: screen1, EWS-FLI1 expression: high (no doxycycline)
[6] = 0.25 µM, library screen: screen1, EWS-FLI1 expression: low (doxycycline-induced shRNA knockdown)
[7] = 2.5 µM, library screen: screen1, EWS-FLI1 expression: high (no doxycycline)
[8] = 2.5 µM, library screen: screen1, EWS-FLI1 expression: low (doxycycline-induced shRNA knockdown)
[9] = 0.103 µM, library screen: screen3, EWS-FLI1 expression: high (no doxycycline)
[10] = 0.103 µM, library screen: screen3, EWS-FLI1 expression: low (doxycycline-induced shRNA knockdown)
[11] = 0.308 µM, library screen: screen3, EWS-FLI1 expression: high (no doxycycline)
[12] = 0.308 µM, library screen: screen3, EWS-FLI1 expression: low (doxycycline-induced shRNA knockdown)
[13] = 0.926 µM, library screen: screen3, EWS-FLI1 expression: high (no doxycycline)
[14] = 0.926 µM, library screen: screen3, EWS-FLI1 expression: low (doxycycline-induced shRNA knockdown)
[15] = 2.8 µM, library screen: screen3, EWS-FLI1 expression: high (no doxycycline)
[16] = 2.8 µM, library screen: screen3, EWS-FLI1 expression: low (doxycycline-induced shRNA knockdown)
[17] = 8.3 µM, library screen: screen3, EWS-FLI1 expression: high (no doxycycline)
[18] = 8.3 µM, library screen: screen3, EWS-FLI1 expression: low (doxycycline-induced shRNA knockdown)
[19] = 25 µM, library screen: screen3, EWS-FLI1 expression: high (no doxycycline)
[20] = 25 µM, library screen: screen3, EWS-FLI1 expression: low (doxycycline-induced shRNA knockdown)

Measured: cell viability (log2)

Cc1cccc(C)c1OCC(C)N (centres undefined)
inactive: [1] 0.132 | [2] 0.0816 | [3] 0.195 | [4] 0.0671

COc1cc(C)c2c(c1C=O)Oc1c(c(C)c(O)c3c1C(O)OC3=O)OC2=O (centres undefined)
inactive: [5] 0.0345 | [6] 0.132 | [7] 0.154 | [8] 0.0527

CC[C@]1(O)C[C@H]2CN(CCc3c([nH]c4ccccc34)[C@@](C(=O)OC)(c3cc4c(cc3OC)N(C=O)[C@H]3[C@@](O)(C(=O)OC)[C@H](OC(C)=O)[C@]5(CC)C=CCN6CC[C@]43[C@@H]65)C2)C1
active: [9] -3.56 | [10] -0.748 | [1] -2.87 | [2] -0.436 | [11] -3.82 | [12] -0.668 | [13] -3.92 | [14] -0.728 | [3] -2.88 | [4] -0.517 | [15] -3.8 | [16] -0.704 | [17] -3.93 | [18] -0.847 | [19] -3.66 | [20] -0.84

COc1ccccc1OCC(O)CO (centres undefined)
inactive: [9] 0.0395 | [10] 0.0626 | [5] 0.0769 | [6] 0.0685 | [11] 0.0622 | [12] 0.0684 | [13] 0.0429 | [14] 0.0992 | [7] 0.235 | [8] -0.0232 | [15] 0.104 | [16] 0.0405 | [17] 0.0621 | [18] 0.0553 | [19] 0.0205 | [20] 0.0447

Cc1cc(=O)[nH]c(=S)[nH]1
inactive: [5] 0.12 | [6] 0.0466 | [7] 0.162 | [8] 0.133

NCC1COc2ccccc2O1 (centres undefined)
inactive: [5] 0.104 | [6] -0.0116 | [7] 0.0686 | [8] 0.0513

CCOc1cc2ncc(C#N)c(Nc3ccc(F)c(Cl)c3)c2cc1NC(=O)/C=C/CN(C)C
active: [15] -0.201 | [16] -0.422 | [19] -1.43 | [20] -0.678
inactive: [9] 0.06 | [10] 0.0264 | [11] 0.0695 | [12] 0.0377 | [13] 0.0744 | [14] -0.098 | [17] -0.14 | [18] -0.477

Cc1c(N(C)C)c(=O)n(-c2ccccc2)n1C
inactive: [5] 0.0406 | [6] 0.0855 | [7] 0.134 | [8] 0.102

Oc1c(Cl)cc(Cl)c(Cl)c1Cc1c(O)c(Cl)cc(Cl)c1Cl
inactive: [5] 0.107 | [6] 0.122 | [7] 0.135 | [8] 0.0898

CCN(CC)CCNC(=O)c1c(C)[nH]c(/C=C2\C(=O)Nc3ccc(F)cc32)c1C
active: [19] -0.697 | [20] -0.541

COc1ccc(/C=C/C(=O)Nc2ccccc2C(=O)O)cc1OC
inactive: [9] 0.0619 | [10] -0.0298 | [1] 0.153 | [2] 0.0355 | [11] -0.00626 | [12] 0.0321 | [13] 0.0957 | [14] 0.0642 | [3] 0.106 | [4] 0.00335 | [15] 0.026 | [16] 0.0457 | [17] -0.04 | [18] 0.0688 | [19] 0.0974 | [20] 0.042

CCOC(=O)C1=C(COCCN)NC(C)=C(C(=O)OC)C1c1ccccc1Cl (centres undefined)
inactive: [9] 0.118 | [10] 0.0485 | [11] 0.025 | [12] 0.0765 | [13] 0.0185 | [14] 0.0366 | [15] 0.0891 | [16] 0.028 | [17] 0.0206 | [18] 0.0165 | [19] 0.0234 | [20] -0.0161

Oc1ccc(/C=C/c2cc(O)cc(O)c2)cc1
active: [1] -1.5 | [2] -1.81 | [3] -2.99 | [4] -3.07 | [19] -0.23

CO[C@H]1CC2CC[C@@H](C)[C@@](O)(O2)C(=O)C(=O)N2CCCC[C@H]2C(=O)O[C@H]([C@H](C)C[C@@H]2CC[C@@H](OP(C)(C)=O)[C@H](OC)C2)CC(=O)[C@H](C)/C=C(\C)[C@@H](O)[C@@H](OC)C(=O)[C@H](C)C[C@H](C)/C=C/C=C/C=C/1C
active: [9] -0.93 | [10] -0.714 | [11] -0.852 | [12] -0.724 | [13] -0.888 | [14] -0.755 | [15] -0.837 | [16] -0.688 | [17] -0.983 | [18] -0.734 | [19] -1.05 | [20] -0.738

CCOc1ccc(C(=O)Nc2ccc(NC(=O)CC)cc2)cc1Cl
inactive: [5] 0.102 | [6] 0.0179 | [7] 0.0812 | [8] -0.0835
